Results published in the RNAGym collection of RNA variant scans (doi:10.1073/pnas.2313332121).
Variants at the background level are over-represented here.

B1: TPR 5TU (parent)
chain: GGAUCUUCUCGAUCUAACAAAAAAGACAAAUCUGCCACAAAGCUUGAGAGCAUCUUCGGAUGCAGAGGCGGCAGCCUUCGGUGGCGCGAUAGCGCCAACGUUCUCAACUAUGACACGCAAAACGCGUGCUCCGUUGAAUGGAGUUUAUCAUG

Variants of: B1
Experiment: polymerase ribozyme fitness, log enrichment relative to wild type (log ratio); higher = more active; in vitro selection for triplet polymerase activity
In short: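 After PCR construction and transcription, each subunit's mutant library from a heterodimeric triplet polymerase ribozyme was annealed with a biotinylated primer, the partner subunit and triplets. Incubation was frozen, at −7 °C, and extended constructs were gel-excised, bound to streptavidin beads and amplified by RT-PCR, in one selection round done in triplicate. Fitness is the logarithm of a genotype's enrichment divided by that of the wild type, from inverse-variance-weighted replicate averages of Illumina-sequenced inputs and outputs. The base of the logarithm is 2, and genotypes needed ≥10 input reads and ≥1 read per output.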

Variant | polymerase ribozyme fitness (log ratio)
GGAUCGUCUCGAUUUAACUAAAAAGACAAAUCUGCCACAAAGCUUGAGAGCAUCUUCGGAUGCAGAGGCGGCAGCCUUCGGUGUCGCGAUAGCGCCAACAUUCUCAACUAUGACACGCAAAACGCGUGCUCCGUUGAAUGGAGUUUAUCAUG | ≤ -4.2
GGAUCGUCUCGAUCUAAGAAAAAAGACAAAUCUGCCACAAAGCUUGAGAGCAUCUUCGGAUGCAGCGCCGGCAGCCUUCGGUGGCGCCAUAGCGCCAACGUUCUCAACUAUGACACGCAAAACGCGUGCUCCGUUGAAUGGAGUUUAUCAUC | ≤ -4.2
GGAUCGUCUCGAUCUAAUAAAAAAGACAAAUCUGCCCCAAAGCUUGAGAGCAUCUUCGGAUGCUGAGGCGGCAGCCUUCGAUAGCGCGAUAGCGCCAUCGUUCUCAACUAUGACACACAAAAGGCGUGCUCCGUUGAAUGGAGUUUAUCAUG | ≤ -4.2
GGAUCGUCUCGAUCUAAUAAAAAAGACAAAUCUGCCACAAAGCUUGAGAGCAUCUUCGGAUUCAGAGGCGGCAGCCUUCGGUGGCGCGAUACCGCCAACGUUCUCAACUAGGACACGCAAAACGCGUGCUCCGUUGAAUGGACUUUAUCAUG | ≤ -4.2
GGAUCGUCUCGAUCUAACAAAAAAGAAAAAUCUGCCACAAUGCUUGAGAGCAUCUUCGGAUGCGGAGGCGGCAGCCUUCGGUGGCGCGAUAGCGCUAACGUUGUCAACUAUGACACGCAAAACGCGUGCUCCGUUCAAUGGAGUUUAUCAUG | ≤ -4.2
GGAUCGUCUCGAUCUAACAAAAAAGACAAAUGUGCCACAAAGCUCGAGGGCAUCUUCGGAUGCAGAGGCGGCAGCCUUCGGUGGCGCGAUAGCGACAACGUUCUCAACUAUGACACGCAAAACGCGUGCUCCGUUGAAUGGAGUUUAUCAUG | ≤ -4.2
GGAUCGUCUCGAUCUAACAAAAAAGACAAAUCUGUCACAAAGCUUGAGAGCAUCGUCGGAUGCAGAGGCGGCAGCCUUCGGUGGCGCGAUAGCGCCAACGUUCUCAACUAUGACACGCAACACGUGUGCUCCGUUGUACGGAGUUUAUCAUG | ≤ -4.2
GGAUCGUCUCGAUCUAACAAAAAAGACAAAUCUGUCACAAAGCUUGAGAGCAUCUUCGGAGGCAGAGGCGGCAGCCUUCGGUGGCGCGAUAGCGCCGACGUUCUCAACUAUGACACGCAAAACGAGUGCUCCGUUGAAUGGAGUUUAUCAUG | ≤ -4.2
GGAUCGUCUCGAUCUAACAAAAAAGACAAAUCUGCAACAAAGCUUGAGAGCAUCUGCGGAUGCAGAGGCGGCAGCCUUCGGUGGCGGGAGAGCGCCAACGUUCUCAACUAUGACACGCAAAACGCGUGCUCCGUUGAAUGGAGGUUAUUAUG | ≤ -4.2
GGAUCGUCUCGAUCUAACAAAAAAGACAAAUCUGCCACAAAGGUUGAGUGCAUCUUCGGAUGCAGAGGCGGCAGCCUUCGGUGGCACGAUAGCGCUAACGUUCUAAACUAUGACACGCAAAACGCGUGCUCCGUUGAAUGUAGUUUAUCAUG | ≤ -4.2
GGAUCGUCUCGAUCUAACAAAAAAGACAAAUCUGCCACAAAGCUUGAGAGAAUCUUCGGAUGCAGAGGCGGCAGCCUUCGGUCGCGCGAUAGCGCCAACGUUCUCAACUAUGACACGCAAAACGCGUGCUCCGUUGAAUGGAGUUUAUCAUG | -2.97
GGAUCGUCUCGAUCUAACAAAAAAGACAAAUCUGCCACAAAGCUUGAGAGCAUAUUCGGAUGCGGAGGCGGCAGCCUUCGGUGGCGCGAUAGCGCCAACGUUGUCAACUAUGACACGCAAAAGGCGUGCUCCGUUGAAUGAAGUUUAUCAUG | ≤ -4.2
GGAUCGUCUCGAUCUAACAAAAAAGACAAAUCUGCCACAAAGCUUGAGAGCAUUUUCGGAUGCAGAGGCGGCAGCCUUCGAUGGCGCGAUAGCGCCAACGUUCUCAACUAUGACACGCAAAACGCGUGCUCCGUGGAAUGGAGUUUAUCAUG | -3.31
GGAUCGUCUCGAUCUAACAAAAAAGACAAAUCUGCCACAAAGCUUGAGAGCAUCUUGGGAUGCAGAGGCGGCAGCUUUCGGUGGCUCGAUAGCGCCAACGUUCUCAACUAUGACACGCAAAACGCGUGCACCGUUGAGUGGAGUUUAUCAUG | ≤ -4.2
GGAUCGUCUCGAUCUAACAAAAAAGACAAAUCUGCCACAAAGCUUGAGAGCAUCUUCGGAUGUAGAGGCGGCAGCCUUCGGUGGCGCGCUAGCGCCAACGUUCUCAACUAUGACACGCAAAACGCGUGCUCCGUUGAAUGGAGUUUAUCAUG | -0.961
GGAUCGUCUCGAUCUAACAAAAAAGACAAAUCUGCCACAAAGCUUGAGAGCAUCUUCGGAUGUAGAGGCGGCAGCCUUCGGUUGCGCGAUAGCGCCAUCGUUCUCAACUAUGACACGCAAAUCGCGUGCUCCGUUGAAUGGAGUUUAUCAUG | -0.875
GGAUCGUCUCGAUCUAACAAAAAAGACAAAUCUGCCACAAAGCUUGAGAGCAUCUUCGGAUGCAGAGGCGGUAGCCUUCGGUGGCGCGAGAGUGCCAACGUUCUCAACUAUGACACGCAAAACGCGUGCUCCGUUGAAUGGAGUUUAUCAUG | ≤ -4.2
GGAUCGUCUCGAUCUAACAAAAAAGACAAAUCUGCCACAAAGCUUGAGAGCAUCUUCGGAUGCAGAGGCGGCAGCCUUCGGUGGAGCGAUAGCGCCAACGUUCUCAACUAUGACACGCAAAACGGGUGCUCCGUUGAAUGGAGUUUAUCAUG | -0.955
GGAUCGUCUCGAUCUAACAAAAAAGACAAAUCUGCCACAAAGCUUGAGAGCAUCUUCGGAUGCAGAGGCGGCAGCCUUCGGUGGGGCGAUAGCGCCAACGUUCUCAACUAUGUCACGCAAAACGUGUGCUCCGGUGAAUGCAGUUUAUCAUG | ≤ -4.2
